The values below come from ChEMBL document CHEMBL1201862, “PubChem BioAssay data set” (2004).

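Cells were grown in 96-well plates and exposed to each compound for 48 hours at five concentrations; endpoints were interpolated linearly between bracketing concentrations, or set to the highest concentration if not reached. Here, GI50 denotes the concentration required for 50% inhibition of growth.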 Activity calls are given as the source filed them. Rule as the data show it: active = GI50 up to about 1.1 µM and inactive = higher.

For this assay, the system named is NCI-H322M. The experiment in a line: NCI-60 cell line screen, 48 h.
On to `Nc1nc(-c2ccc3ccccc3c2)cc(-c2cc(-c3ccc4ccccc4c3)nc(N)n2)n1`, for which the GI50 is inactive: > 100 µM.
In the case of `CN(CCC(=O)O)S(=O)(=O)c1ccccc1`, the GI50 was inactive: > 100 µM.
In the case of `CC(=O)Nc1c(C)cc(OCC(=O)O)cc1C` it was inactive: > 100 µM; in that of `CCOC(=O)C1=C(C)NC(C)=C(C(=O)OCC)C1c1ccc(Cl)cc1`, inactive: 14.3 µM.
For `Cc1nc(O)nc(N/N=C/c2ccc(Cl)cc2)c1C(=O)NC(C)(CO)CO`, the GI50 was inactive: > 100 µM.
Consider `Cc1nc2c(N)ncnc2o1`, for which the GI50 was inactive: > 100 µM.
With `O=C1[C@@H]2C3C=CC([C@H]4C(=O)N(CO)C(=O)[C@@H]34)[C@@H]2C(=O)N1CO`, the GI50 was inactive: > 100 µM.
Regarding `Cc1cc(NS(=O)(=O)c2ccc(NC(=O)c3ccc4nc5ccccc5c(Nc5ccc(S(N)(=O)=O)cc5)c4c3)cc2)no1`, the GI50 was inactive: 44.7 µM.
`CC1=CC(=C(c2ccc(N)c(C)c2)c2ccc(N)c(C)c2)C=CC1=N`: the GI50 is inactive: 3.78 µM.
In the case of `CN(C)c1c(Cl)c(=O)oc2c1ccc1nc(-c3ccccc3)sc12` it was inactive: > 100 µM; in that of `CCCCCCCCC(O)C#CC(N)=O` (stereo unspecified), inactive: 13.5 µM.
For the compound `NCCCNCCSSCCCCS(=O)O`, the GI50 was inactive: 96.6 µM.
In the case of `CN(C)CCNC(=O)c1cccc2ccc(-c3cccnc3)nc12` it was inactive: 6.07 µM; in that of `CC1(C)OC2COC3([C@@H]4OC(C)(C)O[C@@H]4CO)OC(C)(C)OC3C2O1` (stereo partly specified), inactive: > 100 µM.
As to `CC(=O)NC1C(Sc2ncn(C3OC(CO)C(O)C(O)C3NC(C)=O)n2)OC(CO)C(O)C1O` (stereo unspecified), the GI50 is inactive: > 100 µM.
In the case of `CCCCNCC(=O)O[C@]1(CC)C(=O)OCc2c1cc1n(c2=O)Cc2cc3ccccc3nc2-1`, the GI50 is active: 0.826 µM.
Take `COC(=O)/C(C=O)=C/Sc1ccccc1`: the GI50 is inactive: 28.4 µM.
Turning to `CN[C@@H](Cc1cccc2ccccc12)C(=O)N[C@@H](CC(C)C)B(O)O`, the GI50 is active: < 0.0177 µM.
As for `COc1cc2c(cc1OC)C1C3CCCCC3CCN1CC2` (stereo unspecified), the GI50 was inactive: > 100 µM.
With `C/C(CCN(C)C)=N\OC(=O)c1ccccc1`, the GI50 is inactive: > 100 µM.
With `CC(C)OP(=O)(OC(C)C)c1c(N)n[nH]c1Nc1ccccc1`, the GI50 is inactive: > 100 µM.
Turning to `Clc1ccc(C2=C(c3ccccc3)C(c3ccc(Cl)cc3)N3C(=N[C@H]4CCCC[C@@H]43)N2)cc1` (stereo partly specified), the GI50 was inactive: 11.8 µM.
`O=C1N/C(=N/N=C\C(O)C(O)C(O)C(O)CO)N/C1=C\c1ccc(Cl)cc1` (stereo unspecified): the GI50 is inactive: 23.4 µM.
As to `CC(C)=CCC[C@@H](C)C1=C(O)C(=O)C(C)=C(Nc2ccccc2F)C1=O`, the GI50 was inactive: 18.5 µM.
Take `Cc1cccc(NC(=S)Nc2ccccc2Cl)n1`: the GI50 was inactive: 84.9 µM.
For `CC(=O)OCC1OC(N2C(c3ccccc3)=CC(c3ccccc3)C(C#N)=C2S)C(OC(C)=O)C(OC(C)=O)C1OC(C)=O` (stereo unspecified), the GI50 is inactive: 27 µM.
As for `OC(Cc1cnnc2ccccc12)C(Cl)(Cl)Cl` (stereo unspecified), the GI50 was inactive: > 10 µM.
Turning to `CC(C(=O)OCc1ccccc1)(c1ccco1)N1C(=O)OC(c2ccccc2)C1c1ccccc1` (stereo unspecified), the GI50 was inactive: > 100 µM.
As to `N#Cc1cc2c(n(C3OC(CO)C(O)C(O)C3O)c1=S)CCCCCC2` (stereo unspecified), the GI50 is inactive: > 100 µM.
`CC(=O)Oc1c(-c2ccccc2)sc2ccccc12`: the GI50 is inactive: 16.5 µM.
Take `c1cc2c3c(c1)[C@@H]1O[C@@H]1c1cccc(c1-3)[C@@H]1O[C@H]21`: the GI50 is inactive: 32.5 µM.
In the case of `CCOP(=O)(OCC)/C(C#N)=C/c1ccnc2ccccc12` it was inactive: 30.8 µM; in that of `CSC1=C(SC)C(=O)c2cn(C)c(=O)cc2C1=O`, inactive: 18.3 µM.
Regarding `N=c1oc2ccc(Cl)cc2cc1C(=O)NC1CCCCC1`, the GI50 is inactive: 42.4 µM.
As to `Cc1nc2c(=O)n(C)ncc2[nH]1`, the GI50 was inactive: > 100 µM.
Consider `CCO/N=C\c1ccc2oc(-c3ccccc3)cc(=O)c2c1`, for which the GI50 was active: 0.287 µM.
With `COc1cccc2c(NNc3ccccc3)c3ccc([N+](=O)[O-])cc3nc12`, the GI50 is inactive: 40.7 µM.
Regarding `O=C1CCC2(c3ccc(F)cc3)Nc3ncncc3N12` (stereo unspecified), the GI50 was inactive: > 10 µM.
In the case of `C=C(C)[C@@H]1CCC2=C[C@H](C/C(C)=C\C3=CC(C)=C(O3)[C@H]1O)OC2=O` it was inactive: > 100 µM.
As for `CCOC(=O)NNC(=O)NC12CC3CC(CC(C3)C1)C2`, the GI50 was inactive: > 100 µM.
As to `COc1ccc2c(c1)C(N)=C(c1ccccc1OC)C2=O`, the GI50 is inactive: > 100 µM.
For the compound `Cc1cc2c(c3c1c1ccccc1n3C)C(=O)c1ccccc1C2=O`, the GI50 is inactive: > 100 µM.
`O=C/C(=C(/Cl)c1ccc(O)cc1)c1ccccc1`: the GI50 was inactive: 36.8 µM.
In the case of `O=C1[C@H]2C(c3ccccc3)=NN(C(=O)c3ccccc3)[C@H]2C(=O)N1c1ccccc1` it was inactive: > 100 µM; in that of `CCOC(=O)C1=C(Nc2ccc(Cl)c(Cl)c2)OC/C1=N\NS(=O)(=O)c1ccc(C)cc1`, inactive: 46 µM; in that of `COc1cc(C2C(C(=O)NCc3ccccc3)=C(C)NC(C)=C2C(=O)NCc2ccccc2)ccc1O`, inactive: 54 µM.
As to `O=c1[nH]c(=O)n(C2C(CO)OC(CO)C2O)cc1F` (stereo unspecified), the GI50 is inactive: > 100 µM.
In the case of `COC(=O)/N=[N+](\[O-])C(c1ccccc1)c1ccccc1` it was inactive: > 100 µM; in that of `O=C1COc2cc(N3CCN(c4cccc(C(F)(F)F)c4)CC3)ccc2N1`, inactive: > 100 µM; in that of `Cc1cc(Cl)ccc1NC(=O)CCCC(=O)C(C(=O)c1ccccc1)c1ccccc1` (stereo unspecified), inactive: > 100 µM.
As to `CCC(=O)C(CCN1CCC(N2C(=O)C(CCC#N)c3ccccc32)CC1)(c1ccccc1)c1ccccc1` (stereo unspecified), the GI50 was inactive: 18.4 µM.
Turning to `C/C(=N\NC(N)=S)c1nc2cccnc2[nH]1`, the GI50 was inactive: 65.5 µM.
Consider `CCCSc1cc(Cl)c(C)cc1S(=O)(=O)n1ccnc1O`, for which the GI50 was inactive: > 100 µM.
As for `CCOC(=O)[C@@H]1ON2O[C@H](OC3CCCCC3c3ccccc3)C[C@H]3OC(=O)[C@@H]1C32` (stereo partly specified), the GI50 was inactive: 80 µM.
In the case of `O=C(O)C(O)Cc1ccccn1` (stereo unspecified) it was inactive: > 100 µM; in that of `CC(=O)OCc1cc(CCC(=O)NCCNc2c3ccccc3nc3ccccc23)cc(COC(C)=O)c1O[Si](C)(C)C(C)(C)C`, inactive: 13.5 µM; in that of `CC(=O)N1C/C(=C\c2ccc(N(C)C)cc2)C(=O)/C(=C/c2ccc(N(C)C)cc2)C1`, inactive: > 100 µM.
With `CC#C[C@@]1(O)CCCCC1O` (stereo partly specified), the GI50 was inactive: > 100 µM.
For `FC(F)(F)C1(C(F)(F)F)O[Si]2(OC(C(F)(F)F)(C(F)(F)F)c3ccccc32)c2ccccc21`, the GI50 was inactive: 8.75 µM.
Consider `COc1cc(CNc2ccc(C(C)C)cc2)cc(OC)c1OC`, for which the GI50 was inactive: 32.6 µM.
`CCO[C@H]1O[C@@H]2OC3(C)CCC4[C@H](C)CCC([C@H]1C)[C@]42OO3` (stereo partly specified): the GI50 is inactive: > 100 µM.
